According to the RNAGym collection of RNA variant scans (doi:10.7554/elife.90254):
Read counts are not given, so values of variants with three or more changes are uncertain.

B1: LINE1-mini (parent)
chain: GGCAGAGCUCAACACAGCGUGGCAAAGUGGCUGUGGCUAGACUGCC

Variants of: B1
Assay: self-cleavage, relative activity (ratio to wild type); higher = more cleavage; in vitro, sequencing; the parent is a self-cleaving ribozyme

Variant	self-cleavage
GGCAGAGCUCAACACAGCGUGGCAAAGUGGCUGGGGCUCGAUUGCC [U34G A39C C42U]	0.03
GGCAGGGCCCAACACAGCGUGGCAAACUGGCUGUGGCUCGACUGCC [A6G U9C G27C A39C]	0.01
GGCACAGCUCAACACAGCGUGGCAAAGCGGCUGUGGCCAGACUGAC [G5C U28C U38C C45A]	0.02
GGCAGAGAUCAACAUAGCGUGGCCAAGUGGCUGUGGCUUGACUGCC [C8A C15U A24C A39U]	0.26
GGCAGAGCUCAACACAGCGUGGCAAAGUGACUAUGGCUAUACUGCC [G30A G33A G40U]	0.16
GGCAGAACUCAACAUAGCGUGGCAAAGCGGCUGUGGCUAGACUGCC [G7A C15U U28C]	0.41
GGCAGAGCUCAACACAGCUUGGAAAAGUGGCUGUGACUAGACUGCA [G19U C23A G36A C46A]	0.03
GACAGAGUUAACUACAGCGUGGCAAAGUGGCUGUGGCUAGACUGCC [G2A C8U C10A A12C C13U]	0.04
GGCAGAGCUAAACACAGCGUGGUAAAGUGGUCGUGGCUAGACUGCC [C10A C23U C31U U32C]	0.03
GGCAGAGCUCAACACAGCGUAGCCAAGUGGCUGUGGCUAGAGUGCC [G21A A24C C42G]	0.12
GGCAGAGCUCAACACAGCGUGGCAAAGUGGGUGUGACUAUACGGUC [C31G G36A G40U U43G C45U]	0.1
GGCAGAGUUCAACACAGCGGGGCAAAGUGGAUGUGGCUAGACUGCC [C8U U20G C31A]	0.01
GGCCGAGCUCAACACAGCGUGGCAAAGUGGUUGUGGCUAGACUGUG [A4C C31U C45U C46G]	0.05
GGCAAAGCUCCCCACAGCGUUGCAAAGUGGCUGUGGCUAGACUGUC [G5A A11C A12C G21U C45U]	0.01
GGCAGAGCUCAGCACAGCGUGGCAAAGUGUUUGUCGCUAUACUGCC [A12G G30U C31U G35C G40U]	0.04
GGAAGAGCUCCACACAGCGGGGCAAAGUGUCUGUGGCUAGACUGCC [C3A A11C U20G G30U]	0.03
GGCAGAGCUCAACUCGGCGUGGCAAAUUGGCUGUGGCUAGACUGCC [A14U A16G G27U]	0.23
GGCAGAGAUCAACACAGCUUGCCAAAGUGGUUGUGGUUAGACUGCC [C8A G19U G22C C31U C37U]	0.04
GGCAGAGCUCGACACAGCUUAGCGAAGUGGCUGAGGCUAGACUGCC [A11G G19U G21A A24G U34A]	0.01

Variant	self-cleavage
GGCUGAGCUCAACACAGCGUGGCAAAGCGGCUGUGGCCAGACUGCC [A4U U28C U38C]	0.03
GGCAGAGCUCAACACAGCGUGGCAAAUUUGCUGUGGCUAGACUCCC [G27U G29U G44C]	0.02
GGCAGAGCUCAACACAGCGAAGCAAAGUGGCUCUGUCUAGACUGCC [U20A G21A G33C G36U]	0.03
UGCAGCGCUCAACACCGCGUGGCAAAGUGGCUGUGGCUAGACUGCC [G1U A6C A16C]	0.06
GGGAGAGUUCAACACAGAGUGGCAAAGUGGCCGUGGCUAGACUGAC [C3G C8U C18A U32C C45A]	0.17
GGCAGAGCUCAAAACAGCCUGGCAAAGUGGCUGUGUCUAGACUGCC [C13A G19C G36U]	0.05
GUCAGAGCUCAACACAGCGUGGCAGAGCGGCUGUGGCUAGACUGCC [G2U A25G U28C]	0.02
GGCAGAGCUCAACACAGCGUGGCAAAGCGGCUGUGUCUAGGCUGCA [U28C G36U A41G C46A]	0.06
GGAAGAGCUCAACACAGCGUGGCAAAGUGGCUGUGGCUUAACUGCC [C3A A39U G40A]	0.07
GGCAGACCUCAACACAGAAUGACAAAGUGGCUGUGGCUAGCCUGCC [G7C C18A G19A G22A A41C]	0.02
GGCAGUGCUCAACACAGCGUGUCAAAGUGGCUGUGGCUCCCCUGCC [A6U G22U A39C G40C A41C]	0.1
GGCAGAGCUAAACACAGCGUUGCAAAGUGACUGUAGCUAGACUGCC [C10A G21U G30A G35A]	0.03
GGCAGGGAUCAACACAGCGUGGCAAAGUGGCUGUAGCUAGACUGCC [A6G C8A G35A]	0.08
GGCAGAGCUCAACACAGCGGGACAAAGUGGCUGUGGCUAAACUGCC [U20G G22A G40A]	0.1
GGCAGUGCUCAACACAGCGGGGCAAAGUGGCUGUAGCUAGACUGCC [A6U U20G G35A]	0.05
GGCAGACCUCAACACAGCAUGGCAAAGUGGCUGCGGCUAGACUGCU [G7C G19A U34C C46U]	0.05
GGCAGAGCUCAACACAGUGAGGCAACGUGGCUGUGGCUAUACUCCC [C18U U20A A26C G40U G44C]	0.05
GACAGAGCUCAACCCAGCGCGGCAAACUGGCUGUGACUAGACUGCC [G2A A14C U20C G27C G36A]	0.26
GGCAGAGCUCAACACAGCGUGGCAAAGUGGUUGUUGCUAGACUACC [C31U G35U G44A]	0.04

Variant	self-cleavage
GGCAGAGCUCUACGCAGCGUGGCAAGGUGGCUGUGGCUCGACUGCA [A11U A14G A26G A39C C46A]	0.06
GGCAGAGCUCAAAACAACUUGGCAAAGUGGAUGUGGCUAGACUGCC [C13A G17A G19U C31A]	0.04
GGCAGACCUCAACACUGCGUGUCAAAGUGGCUGUGGCUCGACUGCC [G7C A16U G22U A39C]	0.09
GGCACAGCUCAACACAGCGUGGCAAAGUGGCUGAGGCUAGAGUGCC [G5C U34A C42G]	0.06
CGCAGAGGUCAAUAUAACGUGGCAAAGUGGCUGUGGCUAGACUGCC [G1C C8G C13U C15U G17A]	0.03
GGCAGAGCCCAACACAGCGACGCAAUGUGGCUGUGGCUAGACUGCC [U9C U20A G21C A26U]	0.01
GGCAGAGCUGAACACAGCGUGGCCAAGUGGCUGUGGCUAGAUUGCC [C10G A24C C42U]	0.04
GGCAGUGCUUACCACAGCGUGGCAAAGUGGCUGUGGCUAGACUGCC [A6U C10U A12C]	0.02
GGCAGAGCUCAACGCAGCGAGGCAAAGUGGCUGUGGCUAGACUGUC [A14G U20A C45U]	0.37
GGCAGAGCUUAACACAGCGUUGCAAAGUGGCUGUGGCUAGGCUGCC [C10U G21U A41G]	0.02
GGCAGAGCUCAAGGCAGCGUGGCAAACCGGCUGUGGCUAGACUGCC [C13G A14G G27C U28C]	0.03
GGCAGAGCUCAACACAGCGUGUCAAAGUGGCUGUAGCUAUACCGCC [G22U G35A G40U U43C]	0.09
GGCAGAGCUCAACACAGCGUGACAAAGUGGUUGUGGCUAGACUACG [G22A C31U G44A C46G]	0.03
GGCAAAGCUCAACACAGCGUGGCAAAGUGGAUGUGGCUAGACUGGC [G5A C31A C45G]	0.03
GGCAGAGCUCAACACAGCGUCGCAAAGUGGCUGUGGCUGGACUGUC [G21C A39G C45U]	0.14
GGCAGAGCUGAACACAGUGUGUCAAAGUGGCUGUGGCAAGACUGCC [C10G C18U G22U U38A]	0.08
GGCAGAGCUAAACACAGCGUGUCAAAGUUGCUAUGUCUAGACUGCC [C10A G22U G29U G33A G36U]	0.01
GGCACAGCUCAACACAACGUGGCAAAGUGGUUGUGGCUAGACUGCC [G5C G17A C31U]	0.02
